For 82 molecules, growth results are on record in the supplement of paper PMC10986608.

The other results are listed elsewhere or left out. Repeats are few or missing, and single values can be far off.

This assay deals with Candida albicans DPL-15. Description: growth (OD600) after compound treatment (apparently relative to screen median) (relative growth (fraction; screen median 1.02)); DPL-15 is a caspofungin-resistant clinical isolate; higher = more fungal growth (less antifungal activity). To be noted: 25 µM; RPMI 1640; 48 h; 30 °C.
`COC(=O)[C@@]1(/C=C/[C@@H](C)[C@H](OC)c2ccccc2Br)[C@@H]2OCCC[C@@H]21`: the growth turned out to be 1.15. For `COCCNC(N)=S` the value was 1.34.

As for `COCCN1C(NCc2ccccc2)=NC(c2ccccc2)C(C(=O)OC)=C1C` (configuration not stated), the growth was 1.13. For `CS(=O)(=O)Oc1c(CC23CCCCCCC2=Nc2ccccc23)occc1=O` (configuration not stated) the value was 1.2. For `COc1ccc(OC[C@@H]2C=C(C)C[C@]3(O2)C(=O)Nc2cc(F)ccc23)cc1` the value was 0.889. As to `CC1=Cc2cc(O)ccc2[C@@H]2C=CC(=O)[C@H]2C1`, the growth turned out to be 0.906. With `C#CCC(C)(C)CNC(=O)CC1(CNC(=O)c2cccc(COC(C)C)c2)CCCCC1`, the growth worked out at 1.16. For `CCO[C@H]1CCN(C(=O)c2c(O)cc(O)cc2Nc2cnn(C)c2)C1` the value was 1.1; for `COC(=O)c1nnc(C(=O)OC)c2[nH]c(/N=C/N(C)C)nc12`, 1.04; for `CC(=O)C1=C(C)N(Cc2ccccc2Cl)C(=S)NC1c1cccc(Cl)c1` (configuration not stated), 0.977.

Turning to `COc1cc(CNC(=O)CCCC/C=C/C(C)C)ccc1O`, the growth was found to be 0.975. For `CC(C)Cc1n[nH]c2c1C(c1c(Cl)cccc1Cl)N(c1ccc(N(C)C)cc1)C2=O` (configuration not stated) the value was 0.953. The value for `C#CCOc1ccccc1CNC(=O)OC(C)(C)C` was 0.979. As for `COC(=O)C/C=C/[C@H](C)[C@H](NC(=O)C(F)(F)F)c1ccccc1`, the growth came to 1.01. The value for `CC(C)Cc1n[nH]c2c1C(c1ccc(F)cc1)N(c1ccc(Br)cc1)C2=O` (configuration not stated) was 0.969. The value for `Nc1c(-c2ccc(F)nc2)cnc2c(-c3ccc(F)cc3)cnn12` was 1.15.

For `CC[C@@H](O)COc1cc2c(cc1C1(c3cc4c(cc3OC[C@H](O)CC)OCO4)C(=O)Nc3cc(Br)ccc31)OCO2`, the growth amounted to 0.839. As to `CN(C)CCn1cc(Nc2cc(O)cc(O)c2C(=O)N2CC[C@H](F)C2)cn1`, the growth is 1.17.

With `COc1cc(OC)c2c(=O)c3c(CC=C(C)C)ccc(O)c3oc2c1`, the growth came to 0.943. For `CC(C)Cn1nc(-c2ccccc2)cc1Nc1cc(O)cc(O)c1C(=O)N1Cc2cccnc2C1`, the growth was 0.804. The value for `COc1ccccc1Cn1nc(C)c2c1C(=O)NC2c1ccc(Br)cc1` (configuration not stated) was 1.02; that for `CCC(CC)[C@@H]1N=C2C[C@H](c3ccccc3)[C@@H](C)[C@@H]3C[C@@]2(O1)N(Cc1ccccc1)C3=O` was 0.908; that for `COCOC1CCC(=O)C(C(=O)OC)=C1Oc1cc(O)cc(OC)c1` (configuration not stated) was 0.984. The value for `C#Cc1cc(O)c2c(=O)c3ccccc3oc2c1` was 1.06; that for `CN1c2ccccc2[C@]23CCC[C@]12Oc1c(occc1=O)C3` was 0.862; that for `COCOC1CCC(=O)C(C(=O)OC)=C1Oc1cc(OC)cc(OC)c1` (configuration not stated) was 1.03. The value for `OC[C@H]1O[C@H](C#Cc2ccccc2)C=C[C@@H]1O` was 1.05; that for `O=S(=O)(NC1CCCCC1)OCCCc1ccccc1` was 1.17.

On to `COC(=O)C1=C(C)NC(=O)NC1c1ccc(F)cc1` (configuration not stated), for which the growth was determined as 1.01.

`COc1ccc(N2C(=O)C3=C(C(C)=NCC(C)(C)N3)C2c2cccc(C(F)(F)F)c2)cc1` (configuration not stated): the growth stood at 0.935.

For the molecule `CC(C)=CCc1cc(OCC(=O)O)cc2oc3cccc(O)c3c(=O)c12`, the growth came to 1.21. Regarding `COc1ccccc1Cn1nc2c(c1CC(C)C)C(c1ccc(C)cc1)NC2=O` (configuration not stated), the growth worked out at 0.908. The value for `CCCCN(Cc1ccccc1)CC1CCCN(CCc2ccccc2)C1` (configuration not stated) was 0.988; that for `CC(C)C1=C[C@H]2[C@H]3Cc4ccccc4[C@H]3[C@@H]1[C@@H](O)[C@]2(C)O` was 0.929; that for `CC(C)(C)C[C@@H](O)COc1cc2c(cc1C1(c3cc4c(cc3OC[C@H](O)CC(C)(C)C)OCO4)C(=O)Nc3cc(F)ccc31)OCO2` was 0.955. The value for `COC(=O)[C@@H]1[C@H](C(=O)NC2CCCCC2)[C@@H](c2ccccc2)[C@H]1c1ccccc1` was 1.09; that for `O=c1c2cccc(O)c2oc2cc(O)cc(O)c12` was 0.695; that for `CCCCCC[C@]12Cc3cc(OC)c(OC)cc3[C@@H](O1)c1c(c3ccccc3n(C)c1=O)O2` was 0.93. For `COC(=O)C1=C(C)N(CCCOC(C)C)C(=S)NC1c1ccc(C)cc1` (configuration not stated) the value was 1.28; for `CC(C)[C@@H]1NC(=O)C[C@@H]2C[C@H](C)[C@H](c3ccccc3)N2C1=O`, 1.07; for `COc1ccc([C@@]23Oc4cc(OC)cc(OC)c4[C@]2(O)[C@H](O)[C@H](C(=O)NCCCC(OC)OC)[C@H]3c2ccccc2)cc1`, 1.02. On to `COc1ccc(Cn2ccc(N)n2)cc1`, for which the growth came out at 1.01.

For the molecule `CC(C)NC(=O)OC[C@H]1O[C@H](C#Cc2ccc(C(C)(C)C)cc2)C=C[C@H]1O`, the growth was 0.999. The value for `COc1ccc(Cn2nc(-c3ccccc3)cc2Nc2cc(O)cc(O)c2C(=O)N(C)Cc2ccon2)cc1` was 1.05. The value for `COc1ccc([C@@]23Oc4cc(OC)cc(OC)c4[C@]2(O)[C@H](O)[C@H](C(=O)N(C)OC)[C@H]3c2c(F)c(F)c(F)c(F)c2F)cc1` was 1.06. The value for `COc1ccc(N2C(=O)c3[nH]nc(CC(C)C)c3C2c2ccccc2Cl)cc1` (configuration not stated) was 0.987.

For the molecule `CCNC(=O)[C@H]1[C@H](C(=O)NCC)[C@@H](c2ccc(OC)c(OC)c2)[C@@H]1c1ccc(OC)c(OC)c1`, the growth came out at 1. For `COc1cc(/C=C/c2cc(/C=C/c3ccc(O)c(OC)c3)nc(N)n2)ccc1O`, the growth worked out at 1.01. The value for `COc1ccc(N2C(=O)C3=C(C(CC(C)C)=NCCN3)C2c2cccc(C(F)(F)F)c2)cc1` (configuration not stated) was 1.02; that for `COc1cc(/C=C/C(=O)/C=C(O)/C=C/c2ccc(O)c(OC)c2)ccc1O` was active: 0.205. The value for `COc1ccc(N2C(=O)c3[nH]nc(CC(C)C)c3C2c2ccc(C(=O)O)cc2)cc1` (configuration not stated) was 0.857; that for `CCOC(=O)COc1ccc(CC=C(C)C)c2c(=O)c3ccccc3oc12` was 1.08. The value for `CC(=O)C1=C2C=CCCN2C(=O)NC1c1c(F)cccc1Cl` (configuration not stated) was 1.1. For the molecule `COc1ccc([C@@]23Oc4cc(OC)cc(OC)c4[C@]2(O)C(=O)[C@H](C(=O)NCCCC2(C)OCCO2)[C@H]3c2ccccc2)cc1`, the growth was determined as 0.73. The value for `CCCCCOS(=O)(=O)Nc1ccc(C(C)(C)C)cc1` was 1.08; that for `C=C(C)[C@@H]1CC[C@]2(COC(C)=O)CC[C@]3(C)[C@H](CC[C@@H]4[C@@](C)(CCC=O)[C@H](C(C)=O)CC[C@]43C)[C@@H]12` was 1.12. For `FC(F)(F)c1ccccc1CN1CCCc2nc(-c3ccc(Br)cc3)ccc21` the value was active: 0.113; for `Cc1ccc(S(=O)(=O)Oc2c(CC34CCCCC3=Nc3ccc(F)cc34)occc2=O)cc1` (configuration not stated), 1.03. Turning to `C=CCC(CCc1ccccc1)Nc1ccc(OC)cc1OC` (configuration not stated), the growth was found to be 1.04. The value for `CCOC(=O)N1c2ccccc2C=CC1/C=C/c1cccc(F)c1` (configuration not stated) was 1.08. For `CO[C@H](c1ccccc1Br)[C@H](C)[C@H]1C=C(C(=O)O)[C@@H]2Oc3ccccc3[C@H]12` the value was 1.13. For `CC(=O)C1=C(C)N(Cc2ccc(F)cc2)C(=S)NC1c1ccc(Cl)cc1` (configuration not stated) the value was 1.06; for `O=C1OCc2ccc(C#CCOc3ccc4c(=O)c(Cc5ccncc5)coc4c3)cc21`, 1.12; for `C#CCC(C)(C)CNC(=O)[C@@H]1C[C@@H](O)CN1C(=O)OCC1c2ccccc2-c2ccccc21`, 1.06. For `CC(C)Cc1c2c(nn1-c1ccccc1)C(=O)NC2c1ccc(Br)cc1` (configuration not stated), the growth came out at 0.983.

Regarding `COC1=C[C@H](C(=O)NCc2ccc(Br)cc2)[C@H](C)[C@@H](c2ccccc2)CC1=O`, the growth stood at 1.09. The value for `COc1cccc(N2C(=O)c3[nH]nc(CC(C)C)c3C2C2CCCCC2)c1` (configuration not stated) was 1.13. Regarding `COc1ccc(Cn2nc(C3CC3)cc2N)cc1`, the growth amounted to 1.1. For `COc1ccccc1Cn1nc2c(c1C(C)C)C(c1ccccc1)NC2=O` (configuration not stated) the value was 1.13; for `CC1(C)CN=C(c2ccccc2)C2=C(N1)C(=O)N(c1ccccc1)C2c1ccc2c(c1)OCO2` (configuration not stated), 1.1; for `COc1cc([C@@H]2[C@@H](C(=O)NC3CCCC3)[C@@H](C(=O)NC3CCCC3)[C@@H]2c2cc(OC)c(OC)c(OC)c2)cc(OC)c1OC`, 1.01. Regarding `C=CCNC1=NC(c2cccc(C(F)(F)F)c2)C(C(=O)OC)=C(C)N1C` (configuration not stated), the growth is 0.881. With `COc1ccc(C2NC(=S)N(Cc3ccccc3)C(C)=C2C(C)=O)cc1` (configuration not stated), the growth is 0.942.

On to `CCOC(=O)/C=C/CCC/C=C/C(=O)c1ccccc1`, for which the growth was 0.949. For `COC(=O)[C@]1([C@H]2CCC(=O)O2)CC(=O)c2c(O)c(Br)cc(Br)c2O1` the value was 1.17. For `O=C(CCc1ccco1)NCc1cccc(CNC(=O)CCc2ccco2)c1` the value was 0.981. The value for `C=CCCN1C(=O)[C@H]2[C@H]([C@H]3c4ccccc4[C@]2([C@@H](COC)OC)c2ccccc23)[C@]1(C)O` was 0.982.

As for `COC(=O)c1cc2c(c3c4ccccc4n(S(=O)(=O)c4ccc(C)cc4)c13)C(=O)N(C)C2`, the growth worked out at 1.1. The value for `CC(=O)OC[C@H]1O[C@H](c2ccc(C)cc2)C=C[C@@H]1OC(C)=O` was 0.949; that for `CCCCCOS(=O)(=O)NC(C)C` was 1.16.

With `CCOc1ccc(-n2c(C)c3c(C)nnc(N4CCN(C)CC4)c3c2C)cc1`, the growth is 0.961. The value for `COC(=O)[C@@]12Oc3ccc(-c4ccc(N5CCN(C(=O)OC(C)(C)C)CC5)nc4)c(O)c3C(=O)C1=C(N)C[C@H](C)[C@H]2O` was 0.943.
